# From the supplement of paper PMC8728848
# The list shows a part of the results.
# Experiments:
# Experiment in all cases: glycan array binding signal (z-score within array); higher = stronger binding
# Settings in all cases: glycan notation: IUPAC condensed, linker removed; mutation: D325N
# [1] = molecular target: Neu5Ac(a2-6)Gal(b1-4)GlcNAc(b1-2)Man(a1-3)[Gal(b1-4)GlcNAc(b1-2)Man(a1-6)]Man(b1-4)GlcNAc(b1-4)GlcNAc
# Method in brief: (§1)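 Arrays were curated from the Consortium for Functional Glycomics database, 3228 in total, and kept only where the protein sequence was available. Binding is expressed as a within-array Z-score. This score was averaged across arrays of the same protein sequence at different concentrations or buffers and across linkers, and negative values can be read as non-binding.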
# [2] = molecular target: Neu5Ac(a2-6)Gal(b1-4)GlcNAc(b1-2)Man(a1-3)[GlcNAc(b1-2)Man(a1-6)]Man(b1-4)GlcNAc(b1-4)GlcNAc
# Method in brief: as §1
# [3] = molecular target: Neu5Ac(a2-6)Gal(b1-4)GlcNAc(b1-2)Man(a1-3)[GlcNAc(b1-2)Man(b1-4)GlcNAc(b1-2)Man(a1-6)]Man(b1-4)GlcNAc(b1-4)GlcNAc
# Method in brief: as §1
# [4] = molecular target: Neu5Ac(a2-6)Gal(b1-4)GlcNAc(b1-2)Man(a1-3)[Neu5Ac(a2-6)Gal(b1-4)GlcNAc(b1-2)Man(a1-6)]Man(b1-4)GlcNAc(b1-4)GlcNAc
# Method in brief: as §1
# [5] = molecular target: Neu5Ac(a2-6)Gal(b1-4)GlcNAc(b1-2)Man(a1-6)[Gal(b1-4)GlcNAc(b1-2)Man(a1-3)]Man(b1-4)GlcNAc(b1-4)GlcNAc
# Method in brief: as §1
# [6] = molecular target: Neu5Ac(a2-6)Gal(b1-4)GlcNAc(b1-2)Man(a1-6)[GlcNAc(b1-2)Man(a1-3)]Man(b1-4)GlcNAc(b1-4)GlcNAc
# Method in brief: as §1
# [7] = molecular target: Neu5Ac(a2-6)Gal(b1-4)GlcNAc(b1-3)Gal(b1-4)GlcNAc
# Method in brief: as §1
# [8] = molecular target: Neu5Ac(a2-6)Gal(b1-4)GlcNAc(b1-3)Gal(b1-4)[Fuc(a1-3)]GlcNAc(b1-3)Gal(b1-4)[Fuc(a1-3)]GlcNAc
# Method in brief: as §1
# [9] = molecular target: Neu5Ac(a2-6)Gal(b1-4)GlcNAc6S
# Method in brief: as §1
# [10] = molecular target: Neu5Ac(a2-6)GalNAc
# Method in brief: as §1
# [11] = molecular target: Neu5Ac(a2-6)GalNAc(b1-4)GlcNAc
# Method in brief: as §1
# [12] = molecular target: Neu5Ac(a2-8)Neu5Ac
# Method in brief: as §1
# [13] = molecular target: Neu5Ac(a2-8)Neu5Ac(a2-3)Gal(b1-4)Glc
# Method in brief: as §1
# [14] = molecular target: Neu5Ac(a2-8)Neu5Ac(a2-3)[GalNAc(b1-4)]Gal(b1-4)Glc
# Method in brief: as §1
# [15] = molecular target: Neu5Ac(a2-8)Neu5Ac(a2-8)Neu5Ac
# Method in brief: as §1
# [16] = molecular target: Neu5Ac(a2-8)Neu5Ac(a2-8)Neu5Ac(a2-3)Gal(b1-4)Glc
# Method in brief: as §1
# [17] = molecular target: Neu5Ac(a2-8)Neu5Ac(a2-8)Neu5Ac(a2-3)[GalNAc(b1-4)]Gal(b1-4)Glc
# Method in brief: as §1
# [18] = molecular target: Neu5Ac(a2-8)Neu5Ac(a2-8)Neu5Ac(a2-8)Neu5Ac(a2-3)[GalNAc(b1-4)]Gal(b1-4)Glc
# Method in brief: as §1
# [19] = molecular target: Neu5Ac(b2-6)Gal(b1-4)GlcNAc
# Method in brief: as §1
# [20] = molecular target: Neu5Ac(b2-6)GalNAc
# Method in brief: as §1
# [21] = molecular target: Neu5Ac9Ac(a2-6)Gal(b1-4)GlcNAc
# Method in brief: as §1
# [22] = molecular target: Neu5Gc(a2-3)Gal(b1-3)GlcNAc
# Method in brief: as §1
# [23] = molecular target: Neu5Gc(a2-3)Gal(b1-3)[Fuc(a1-4)]GlcNAc
# Method in brief: as §1
# [24] = molecular target: Neu5Gc(a2-3)Gal(b1-4)Glc
# Method in brief: as §1
# [25] = molecular target: Neu5Gc(a2-3)Gal(b1-4)GlcNAc
# Method in brief: as §1
# [26] = molecular target: Neu5Gc(a2-3)Gal(b1-4)[Fuc(a1-3)]GlcNAc
# Method in brief: as §1
# [27] = molecular target: Neu5Gc(a2-6)Gal(b1-4)GlcNAc
# Method in brief: as §1
# [28] = molecular target: Neu5Gc(a2-6)GalNAc
# Method in brief: as §1
# [29] = molecular target: Neu5Gc(b2-6)Gal(b1-4)GlcNAc
# Method in brief: as §1
binder,measurement,setting,value
Surfactant Protein D (Human); Neck + Carbohydrate Recognition Domain (NCRD) (Homo sapiens) (protein) MLLFLLSALVLLTQPLGYLEAEMKTYSHRTMPSACTLVMCSSVESGLPGRDRDGREGPRGEKGDPGLPGAAGQAGMPGQAGPVGPKGDNGSVGEPGPKGDTGPSGPPGPPGVPGPAGREGALGKQGNIGPQGKPGPKGEAGPKGEVGAPGMQGSAGARGLAGPKGERGVPGERGVPGNTGAAGSAGAMGPQGSPGARGPPGLKGDKGIPGDKGAKGESGLPDVASLRQQVEALQGQVQHLQAAFSQYKKVELFPNGQSVGEKIFKTAQFVKPFTEAQLLCTQAGGQLASPRSAAENAALQQLVVAKNEAAFLSMTDSKTEGKFTYPTGESLVYSNWAPGEPNDNGGSEDCVEIFTNGKWNDRACGEKRLVVCEF,glycan array binding signal (z-score),[1],-0.117
same,glycan array binding signal (z-score),[2],-0.153
same,glycan array binding signal (z-score),[3],-0.137
same,glycan array binding signal (z-score),[4],-0.118
same,glycan array binding signal (z-score),[5],-0.128
same,glycan array binding signal (z-score),[6],-0.134
same,glycan array binding signal (z-score),[7],-0.14
same,glycan array binding signal (z-score),[8],-0.14
same,glycan array binding signal (z-score),[9],-0.137
same,glycan array binding signal (z-score),[10],-0.129
same,glycan array binding signal (z-score),[11],-0.145
same,glycan array binding signal (z-score),[12],-0.128
same,glycan array binding signal (z-score),[13],-0.108
same,glycan array binding signal (z-score),[14],-0.129
same,glycan array binding signal (z-score),[15],-0.163
same,glycan array binding signal (z-score),[16],-0.148
same,glycan array binding signal (z-score),[17],-0.138
same,glycan array binding signal (z-score),[18],-0.13
same,glycan array binding signal (z-score),[19],-0.14
same,glycan array binding signal (z-score),[20],-0.126
same,glycan array binding signal (z-score),[21],-0.14
same,glycan array binding signal (z-score),[22],-0.138
same,glycan array binding signal (z-score),[23],-0.144
same,glycan array binding signal (z-score),[24],-0.138
same,glycan array binding signal (z-score),[25],-0.134
same,glycan array binding signal (z-score),[26],-0.124
same,glycan array binding signal (z-score),[27],-0.125
same,glycan array binding signal (z-score),[28],-0.153
same,glycan array binding signal (z-score),[29],-0.017
